Over roughly 110,000 compounds, “z-score” has its median near -0.1; the highest 2% begin near 2. The list shows a part of the results. The source made the active and inactive calls.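 How the source made its calls: active means z-score in the third read window above 3 or below -3; inactive means the rest.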
These compounds were tested against Metabotropic glutamate receptor 8 (Rattus norvegicus) (UniProt P70579) (assay: rat mGluR8 modulators via GIRK flux, primary screen, cell-based, thallium flux, HTS (AID 488969)). Settings: HEK293 rat mGluR8, GIRK (G protein-gated inwardly rectifying potassium channel) thallium flux, FluoZin2; at 10 µM; stronger effect = higher value; submaximal glutamate (EC20) added with thallium.
UniProt P70579, sequence (P70579 whole entry, looked up): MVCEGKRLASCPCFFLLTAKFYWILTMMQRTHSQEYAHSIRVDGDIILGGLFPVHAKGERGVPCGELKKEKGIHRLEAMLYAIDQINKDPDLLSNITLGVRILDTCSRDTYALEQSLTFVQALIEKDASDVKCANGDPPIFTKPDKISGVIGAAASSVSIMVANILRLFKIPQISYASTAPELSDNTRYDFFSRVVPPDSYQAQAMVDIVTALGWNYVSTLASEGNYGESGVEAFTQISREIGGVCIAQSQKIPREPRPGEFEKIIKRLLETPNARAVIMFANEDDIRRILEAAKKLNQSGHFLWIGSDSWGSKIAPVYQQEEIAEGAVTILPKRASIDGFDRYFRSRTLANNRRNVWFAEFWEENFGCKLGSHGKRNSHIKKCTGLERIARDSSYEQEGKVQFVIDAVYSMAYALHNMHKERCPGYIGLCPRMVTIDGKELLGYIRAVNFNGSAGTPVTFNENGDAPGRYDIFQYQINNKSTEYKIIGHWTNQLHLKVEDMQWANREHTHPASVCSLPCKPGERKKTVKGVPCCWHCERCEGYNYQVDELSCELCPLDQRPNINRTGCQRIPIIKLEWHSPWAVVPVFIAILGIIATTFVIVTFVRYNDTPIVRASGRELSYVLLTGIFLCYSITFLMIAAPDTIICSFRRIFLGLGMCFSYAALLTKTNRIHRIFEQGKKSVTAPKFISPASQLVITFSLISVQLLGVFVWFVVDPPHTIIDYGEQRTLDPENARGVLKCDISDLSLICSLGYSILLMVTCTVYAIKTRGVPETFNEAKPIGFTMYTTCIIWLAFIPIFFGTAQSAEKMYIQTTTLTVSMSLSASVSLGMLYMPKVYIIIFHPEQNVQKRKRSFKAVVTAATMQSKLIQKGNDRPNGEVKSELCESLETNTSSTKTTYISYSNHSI

Row | Structure (SMILES) | z-score
1 | O=C1CCCCC1C(Nc1ccc(Br)cc1)c1ccccc1 (stereo not given) | 0.171
2 | Cc1ccc(N2CCN(C(=O)CCc3nc4ccccc4[nH]3)CC2)c(C)c1 | 0.378
3 | C=CCSc1nc(-c2ccccc2)c(C#N)c(=O)[nH]1 | -1.23
4 | CCOC(=O)c1c(C)[nH]c(C(=O)Cn2nnc(-c3ccccc3Cl)n2)c1C | -0.366
5 | CCOc1ccc(C(=O)Nc2cc(=O)n(C)c(=O)n2C)cc1 | -0.395
6 | COc1ccc(C(=O)N2CCN(c3c(C)cccc3C)CC2)cc1OC | -0.427
7 | CCn1cc(C(=O)N2CCN(C(=O)c3ccco3)CC2)c2cc(OC)c(OC)cc2c1=O | 0.191
8 | CCOc1cc(-c2conc2N)cc(OCC)c1OCC | 0.888
9 | O=C(COc1ccc(Br)cc1F)NC1CCN(Cc2ccccc2)CC1 | -0.42
10 | O=c1oc2c3c(nn2c2ccccc12)CCCC3 | -0.15
11 | C=CCNC(=O)c1ccc(-c2ccc([N+](=O)[O-])cc2)o1 | -0.231
12 | COc1ccc(C(=O)Oc2coc(CSc3nnc(NC(=O)c4cccs4)s3)cc2=O)cc1 | 0.401
13 | O=C(C1COc2ccccc2O1)N1CCn2c(nc3ccccc32)C1 (stereo not given) | -0.746
14 | CCC(C)NC(=O)CS(=O)Cc1nc(-c2cccc(OC)c2)oc1C (stereo not given) | 0.0139
15 | COc1ccc(OC(C)C(=O)Nc2cccc(OC)c2)cc1 (stereo not given) | -0.0173
16 | CCOC(=O)N/N=C/c1c(F)c(F)c(F)c(F)c1F | 0.154
17 | CCOC(=O)c1c(-c2ccc(OC)cc2)csc1/N=C/N(C)C | -0.193
18 | CN(Cc1ccccc1)C(=O)COC(=O)c1cc(-c2ccc(Cl)s2)nc2ccccc12 | 0.667
19 | CC(C)N(C(=O)CSc1nnc(Cn2nnc3ccccc32)n1C)C(C)C | -0.367
20 | COCCn1c(C)cc(C2=NNC(=Nc3ccc(Cl)cc3Cl)SC2)c1C | -0.351
21 | CCNC(=O)NC(=O)C(C)SCc1ccccc1C (stereo not given) | 0.101
22 | Cc1noc(C)c1C(=O)Nc1ccccn1 | -0.19

Row | Structure (SMILES) | z-score
23 | CCNC(=O)COc1ccc(CC)cc1 | -0.912
24 | CC(NC(=O)c1cc(-c2ccccc2)on1)c1ccccc1 (stereo not given) | -0.332
25 | CCCCCCOc1ccc(/C=c2\s/c(=C(/C#N)C(=O)NCc3ccco3)n(-c3ccccc3)c2=O)cc1 | -0.272
26 | CC(=O)C1C(=O)CC(C)(O)C(C(C)=O)C1c1ccc(N(C)C)cc1 (stereo not given) | 0.621
27 | Cc1noc(C)c1CSc1cc(C)c2ccccc2n1 | 0.409
28 | O=C1/C(=C/c2cccs2)Sc2ccccc21 | -0.152
29 | O=C(c1ccco1)N1CCN(S(=O)(=O)c2ccc(Cl)s2)CC1 | -0.0642
30 | CC(CN1CCOCC1)OC(=O)c1cccs1 (stereo not given) | -0.0471
31 | O=C(CCn1c(=O)[nH]c2ccsc2c1=O)N1CC(=O)N(CCc2ccccc2)C(=O)C1 | 0.092
32 | COc1cccc(-c2cc(C(=O)Nc3cc(OC)c(OC)c(OC)c3)no2)c1 | -0.916
33 | NS(=O)(=O)c1ccc(NC(=O)CCc2ccccc2)cc1 | -0.0142
34 | COc1cc(CC(=O)NCCc2ccc(OCc3ccccc3)cc2)c([N+](=O)[O-])cc1OC | 0.251
35 | CCOc1cc(C)c(C(C)C)cc1S(=O)(=O)N1CCN(C)CC1 | -0.365
36 | O=C(CN(c1cccc([N+](=O)[O-])c1)S(=O)(=O)c1ccccc1)NCc1ccccc1 | 0.014
37 | O=c1[nH]c2ccccc2n1C1CCCCC1 | -1.04
38 | O=C(O)C(Cc1cc2ccccc2[nH]1)N1C(=O)C2CC=C(Cl)CC2C1=O (stereo not given) | -0.308
39 | Cc1ccc(NC(=O)/C(=C\c2ccccc2)NC(=O)/C=C/c2ccccc2)cc1 | -0.26
40 | CC1(C)CC(=O)C2=C(C1)N(Cc1cccnc1)C(=O)C2(NC(=O)C1CC1)C(F)(F)F (stereo not given) | -0.22
41 | CCOc1ccc(Cn2nnc(C(=O)NCCc3ccccc3)c2N)cc1 | -0.743
42 | Cc1cccc(NC(=S)N(C)C2(c3ccccc3Cl)CCCCC2=O)c1 (stereo not given) | 0.385
43 | C=CCNC1=C(Cl)C(=O)N(c2cccc(Cl)c2Cl)C1=O | 0.07
44 | CC(=O)c1cccc(NS(=O)(=O)c2ccc3c(c2)oc(=O)n3C)c1 | -0.193

Row | Structure (SMILES) | z-score
45 | CCCc1nc(N)sc1C(=O)OCC | -0.131
46 | Cc1ccc(S(=O)(=O)N2CC(O)CC2C(=O)OCC(=O)c2ccccc2Cl)cc1C (stereo not given) | 0.535
47 | CCOc1ccc(C(C)=O)cc1CN1C(=O)NC2(CCCCC2C)C1=O (stereo not given) | 0.381
48 | C/C(=N\NC(=O)c1ccccc1)c1ccccc1Br | 0.339
49 | Cc1ccccc1C(=O)NC1CCN(Cc2nnnn2C2CCCC2)CC1 | -0.788
50 | CCNC(=O)NC(=O)COC(=O)c1cccc(NS(=O)(=O)/C=C/c2ccccc2)c1 | -0.142
51 | COc1ccc(-c2cc3ccccc3oc2=O)cc1NC(=O)c1ccc(Br)o1 | -0.49
52 | Cc1ccc(NC(=S)N(Cc2cccs2)Cc2cc3cc(C)cc(C)c3[nH]c2=O)cc1 | -0.317
53 | Cc1ccccc1-n1ncc2c([N+](=O)[O-])cc([N+](=O)[O-])cc21 | 0.0442
54 | Cc1c(Cl)cccc1N=c1c([N+](=O)[O-])nn(-c2ccccc2)n1O | 0.329
55 | CC(C)NC(=O)CSc1nc2ccccc2c(=O)n1CCCOC(C)C | 0.488
56 | CCOc1cc(CN2CCOCC2)cc(C(C)=O)c1 | 0.314
57 | O=C(O)CC1=C(O)C(=O)N(c2ccccc2)C1c1ccc(Cl)cc1 (stereo not given) | -0.135
58 | O=C1N/C(=C/c2ccc(Br)cc2)C(O)=C1C=NCc1ccccc1 | -0.0497
59 | O=C(CSc1ncn[nH]1)Nc1ccc2c(c1)OCCO2 | 0.155
60 | O=S(=O)(NCC(c1cccnc1)N1CCOCC1)c1cccs1 (stereo not given) | 0.0742
61 | CCOc1ccc(N2C(=O)/C(=C/c3cccs3)N(CC(=O)OC)C2=S)cc1 | -0.17
62 | COc1ccc(CN2CCCCC2C(=O)Nc2ccc(OC)c(OCC(C)C)c2)cc1OC (stereo not given) | -0.0415
63 | O=C(Cn1cnc2ccccc21)Nc1ccc(C(=O)O)cc1 | -0.114
64 | Cc1ccsc1C1C(C(=O)O)c2ccccc2C(=O)N1C (stereo not given) | -0.418
65 | CN(CC(=O)N1CCN(c2ccc(F)cc2)CC1)S(=O)(=O)c1ccc(F)cc1 | -0.445
66 | Cc1ccc(NC(=O)c2nn(C34CC5CC(CC(C5)C3)C4)cc2[N+](=O)[O-])cc1 | -0.104

Row | Structure (SMILES) | z-score
67 | Cn1c(=O)c2c(nc(SCc3nn[nH]n3)n2Cc2ccccc2F)n(C)c1=O | 0.363
68 | CCCc1nnc(SCc2ccc(OC)cc2)n1N | -0.405
69 | C/C(Cl)=C/Cc1c(C)[nH]c2ccc(C)cc2c1=O | -0.0588
70 | CSc1nc(N(C)C)nc(N2CC(=O)N(CCNS(=O)(=O)c3ccc(C)cc3)C2=N)n1 | -0.172
71 | COC(=O)c1ccc(/C=N\NC(=O)c2ccc(C)cc2Cl)cc1 | -0.0684
72 | O=C(CNC(=O)c1cnccn1)Nc1ccc(F)c(F)c1F | -0.21
73 | COc1cccc(CN(C)CC(=O)NC(=O)NCc2ccccc2)c1 | 0.16
74 | CCOC(=O)C1=C(Nc2ccccc2)CC(C)(O)C(C(=O)OCC)C1c1ccc(Br)cc1 (stereo not given) | -0.457
75 | COc1cc(C)c(Br)cc1S(=O)(=O)NCc1ccccc1 | -0.159
76 | CC(=O)c1sc2nc(C)cc(C)c2c1N | 0.0834
77 | O=C(Nc1ccccc1Cl)c1ccccc1Cl | -0.159
78 | CCN1CCN(Cc2ccc(NC(=O)Nc3ccc(SC)cc3)cc2)CC1 | 0.0492
79 | COc1cccc(-c2nnc(SCC(=O)N3CCCc4ccccc43)o2)c1 | -0.911
80 | COC(=O)c1ccccc1NC(=O)c1sc(N)nc1C | -0.519
81 | O=C(Cc1ccccc1)Nc1cc(C(=O)c2ccccc2)ccc1N1CCOCC1 | -0.465
82 | CCOC(=O)C(NC(=O)c1ccccc1)(OCc1ccc(F)cc1)C(F)(F)F (stereo not given) | 0.14
83 | Cc1cc([N+](=O)[O-])cc(C)c1OCC(=O)N/N=C/c1ccc(OC(=O)c2ccccc2Br)cc1 | 2.41
84 | COCCCN(C(C)=O)c1nc(-c2ccc(OC)cc2)cs1 | -0.575
85 | CCCC1CC(C)(C(=O)Cn2[nH]c(=O)ccc2=O)OC1=O (stereo not given) | -0.0181
86 | COCCN1CN=C(Nc2nc3ccccc3o2)NC1 | -0.0231
87 | Nc1ccc(Oc2ccc(Cl)cc2)cc1 | 0.354
88 | CCOC(=O)C1=C(C)N=C2SC(C)C(=O)N2C1c1ccc(OCC)c(OCC)c1 (stereo not given) | 0.125

Row | Structure (SMILES) | z-score
89 | COc1ccc(-c2ccc(-c3nnn(CC(C)=O)n3)cc2)cc1 | 0.259
90 | Cc1nc2sccc2c(=O)n1-c1cccc(Cl)c1 | -0.144
91 | CC1CCCC(C)N1C(=O)Cn1cc(/C=C2/C(=O)Nc3ccccc32)c2ccccc21 (stereo not given) | 1.09
92 | CN1CCN(C(=O)c2ccc(N(Cc3ccccc3Cl)S(C)(=O)=O)cc2)CC1 | 0.393
93 | Cc1nn(C(=O)N2CCCCC2)c(C)c1CN1C(=O)c2ccccc2C1=O | -0.052
94 | C/C(N)=C(/C#N)C(=O)COC(=O)c1cc(-c2cccc3ccccc23)nc2ccccc12 | -0.0818
95 | CC1CCCN(C/C(O)=C(\C#N)c2nc3ccccc3[nH]2)C1 (stereo not given) | 0.32
96 | OCC#CCSc1nnc(-c2ccc(Br)cc2)o1 | -0.144
97 | O=C(CSc1nnc(Cc2cccs2)n1-c1ccccc1)Nc1ccc2c(c1)OCCO2 | -0.251
98 | CC(c1ccccc1)N1C(=O)CC(Sc2ncccc2C(=O)O)C1=O (stereo not given) | 0.14
99 | O=C(c1ccccc1F)N1CCN(c2ccc([N+](=O)[O-])c3ncccc23)CC1 | -0.43
100 | COC(=O)c1ccccc1NC(=S)NC(=O)c1ccccc1C | 1.1
101 | CCOC(=O)C1=C(c2ccccc2)N=C2SCC(=O)N2C1c1ccc(OCC)c(OCC)c1 (stereo not given) | -0.469
102 | CC1CC(C)CN(CCCn2c(=S)[nH]c3ccccc3c2=O)C1 (stereo not given) | active: 14.4
103 | COc1ccc(CSCC(=O)N/N=C/c2ccc(OCC(=O)NCc3ccco3)cc2)cc1 | -0.405
104 | COc1ccc(/C=C(\C#N)C(=O)Nc2cccnc2)cc1 | -0.0907
105 | O=C(CSc1nnc(-c2ccc(Br)cc2)n1C1CCCCC1)N1CCCC1 | -0.489
106 | CCOc1ccc(N2Nc3n[nH]c(N)c3N2)cc1 | -0.00338
107 | Cc1ccc(-c2nnn(CC(=O)N(CC(=O)NCC3CCCO3)c3ccccc3)n2)o1 (stereo not given) | -0.674
108 | Cc1ccc(NC(=S)NCc2cccs2)cc1 | -0.104
109 | CCOC(=O)c1ccc(N2C(=O)CC(N3CCC(C(=O)OCC)CC3)C2=O)cc1 (stereo not given) | -0.672
110 | COc1ccc(-n2cnc3cc(NC(=O)c4ccco4)ccc32)cc1 | -1.7
